Each structure is given as a SMILES string. Out of some 52,000 compounds screened, about 4,300 (8.3%) were called active. Rule as the data show it: active = survival mostly below about 52% (no sharp cut-off); inactive = mostly above about 56%. The list shows a part of the results.

The test system of the assay is DeltatarO mutant. The experiment in a line: S. aureus survival, RN4220 and DeltatarO strains – OD600, teichoic acid synthesis inhibitors, primary screen (AID 463173). As to conditions: S. aureus RN4220 wild type/DeltatarO growth, OD600, 18 h, hits give low values, screened at 18.75 µg/mL (by protocol).
For `CCc1ccccc1NC(=O)c1ccc2c(c1)CCCN2S(C)(=O)=O`, the survival is inactive: 105%.
The same measure for `COc1ccc2c(c1)c1c(c(=O)n(CCc3ccccc3)c(=O)n1Cc1cccc(F)c1)n2C`: inactive: 67%.
With `CCSc1nc2ccccc2c(OCc2ccc(Cl)cc2)c1C(=O)OC`, the survival was inactive: 98%.
Regarding `CC(C)(C)OC(=O)N1CCC(c2c(C(=O)N3CCN(Cc4ccccc4)CC3)cnn2-c2cccc(Cl)c2)CC1`, the survival is inactive: 78%.
As for `COc1ccc(Cn2c(CO)cnc2SCc2ccc(C)cc2)cc1`, the survival was inactive: 128%.
For `COc1cc(OC)c(NC(=O)Cn2ncn3c(cc4cc(C)ccc43)c2=O)cc1Cl`, the survival was inactive: 99%.
Turning to `Cc1cccc(NC(=O)CSC2=Nc3ccccc3C3=NC(CCC(=O)NCc4ccco4)C(=O)N23)c1` (stereo unspecified), the survival was inactive: 82%.
Consider `COc1ccc(CC(CN)c2ccccc2)cc1` (stereo unspecified), for which the survival was inactive: 101%.
Consider `COC(=O)c1sccc1S(=O)(=O)N(CC(=O)Nc1cccc(C)c1C)c1ccc(C)c(C)c1`, for which the survival was inactive: 89%.
Turning to `COc1ccccc1CNC(=O)Cn1cc2c(n1)-c1c(oc(C(=O)N3CCOCC3)c1C)CC2`, the survival is inactive: 79%.
Consider `CCc1ccc(-c2cn3nc(CC)sc3n2)cc1`, for which the survival was inactive: 66%.
Take `CN(C)c1ccc(-c2nnc(SCC3CCCO3)n2C)cc1` (stereo unspecified): the survival was inactive: 82%.
In the case of `CCOC(=O)c1c(NC(=O)c2cc(-c3ccc(OC)c(OC)c3)on2)sc2c1CCCC2`, the survival was inactive: 52%.
For `CCc1c(C)sc2c1CCN(Cc1ccc(C#N)cc1)C2c1ccccc1` (stereo unspecified), the survival is inactive: 94%.
With `O=C(CN1C(=O)CCSc2ccc(S(=O)(=O)N3CCCC3)cc21)Nc1cccc(F)c1`, the survival was inactive: 72%.
`COC(=O)CC1Oc2ccccc2-n2cc(-c3ccc(F)cc3)nc21` (stereo unspecified): the survival is inactive: 65%.
Turning to `COc1cc(C(c2c(C)[nH][nH]c2=O)c2c(C)[nH][nH]c2=O)ccc1OC(=O)c1ccccc1OC`, the survival was inactive: 143%.
As to `CCOC(=O)C(C)NC(=O)c1c2c(nc3ccccc13)C(=O)N(C1CCCCC1)C2` (stereo unspecified), the survival is inactive: 107%.
Take `COc1ccc(CCNC(=O)CN(c2ccccc2)S(=O)(=O)N(C)C)cc1OC`: the survival is inactive: 62%.
Turning to `CCc1cccc(C)c1NC(=O)CSc1nc2ccccc2nc1Cc1ccccc1`, the survival is inactive: 69%.
For `Cc1ccc(NC(=O)c2oc3ccc(S(=O)(=O)N4CCC5(CC4)OCCO5)cc3c2C)cc1Cl`, the survival is inactive: 98%.
Consider `CC(=O)N1CCC(N(CCCOC(C)C)C(=O)Nc2ccc(C)c(C)c2)CC1`, for which the survival was inactive: 84%.
As to `COc1ccc(-c2nc3cc(NC(=O)COc4ccccc4C)ccc3o2)cc1`, the survival is inactive: 60%.
With `CC1CCN(CC(=O)Nc2ccc(F)cc2)CC1`, the survival is inactive: 105%.
The result for `O=C(CCNS(=O)(=O)c1ccc2c(c1)CCN2C(=O)C1CC1)N1CCN(c2cccc(Cl)c2)CC1` reads inactive: 122%; that for `CCOc1ccc(/C=C/C(=O)Nc2ccc3nc(N(CC)CC)cc(C)c3c2)cc1OC`, inactive: 52%; that for `Cc1ccc(C)c(NC(=S)NC2CC3CCC(C2)N3Cc2ccco2)c1` (stereo unspecified), inactive: 76%.
As to `C=CC[N+]1(CC=C)CCOCC1`, the survival was inactive: 84%.
The same measure for `CCC(=O)N1c2ccc(S(=O)(=O)CCC(=O)Nc3ccc(OC)cc3OC)cc2CC1C` (stereo unspecified): inactive: 83%; for `CCc1ccc(C2c3c(-c4ccccc4O)n[nH]c3C(=O)N2Cc2cccnc2)cc1` (stereo unspecified): active: 34%; for `COc1ccc(Nc2nn3c(=O)c4cc5c(cc4nc3s2)OCO5)c(OC)c1`: inactive: 146%.
Regarding `CC(=O)OC1CC(C)N(C(=O)c2ccccc2)c2ccc(C)cc21` (stereo unspecified), the survival is inactive: 67%.
Regarding `Cc1ccc2c(CC(=O)Nc3ccc(S(=O)(=O)N4CCCCC4)cc3)coc2c1C`, the survival is inactive: 67%.
In the case of `COc1cc(CN(C(=O)c2ccccc2F)C2CCS(=O)(=O)C2)cc(OC)c1OC` (stereo unspecified), the survival is inactive: 46%.
In the case of `CCCS(=O)(=O)N1CC(=O)N(c2ccc(C)c(Cl)c2)C(C)(C(=O)NC2CCCCCC2)C1` (stereo unspecified), the survival was inactive: 82%.
Regarding `CCCCNC(=O)CCCN1C(=O)c2ccccc2Sc2ncccc21`, the survival is inactive: 68%.
Take `Oc1c(C(c2ccc(F)cc2)N2CCN(Cc3ccccc3)CC2)sc2nc(-c3ccco3)nn12` (stereo unspecified): the survival is inactive: 73%.
As for `CN1C(=O)C2(c3ccccc31)N(c1cccc(C(F)(F)F)c1)C(=O)CS2(=O)=O` (stereo unspecified), the survival is inactive: 68%.
With `CCC(=O)N1CCc2cc(CNS(=O)(=O)c3ccc(CC(C)C)cc3)ccc21`, the survival was inactive: 79%.
Consider `CCN1CCN(c2ncc3c(n2)CCN(Cc2ccccc2C)C3)CC1`, for which the survival was active: -1%.
As for `CCc1ccc(-n2nc(CO)c(C(=O)NC)n2)cc1`, the survival was inactive: 44%.
For `COc1ccc(-c2nc(CS(=O)CC(=O)NCCc3ccc(Cl)cc3)c(C)o2)cc1OC` (stereo unspecified), the survival is inactive: 72%.
On to `CC(C)CCNC(=O)C1CCN(C(=O)c2cc3sccc3n2Cc2ccc(Cl)cc2)CC1`, for which the survival is active: 40%.
As for `Cc1ccc(CS(=O)(=O)c2ncc(Cl)c(C(=O)Nc3nnc(C(C)C)s3)n2)cc1`, the survival was inactive: 54%.
The result for `Cc1ccccc1-c1noc(-c2ccc(N3CCN(c4ccccc4)CC3)c([N+](=O)[O-])c2)n1` reads inactive: 87%.
As to `O=C(NCc1cccnc1)c1ccc(NC(=O)c2ccco2)cc1`, the survival was inactive: 96%.
As for `CC(=O)OCc1cc(=O)n2nc(C3CCCCC3)sc2n1`, the survival was inactive: 84%.
As for `O=C(COc1ccccc1)Nc1sc2c(c1C(=O)Nc1ccccc1Cl)CCCCC2`, the survival is active: 56%.
Take `CCN(Cc1nc(-c2cccc(C)c2)no1)S(=O)(=O)c1ccc(C)cc1`: the survival was active: 43%.
On to `Cc1ccc(C)c(N2C(=O)N(Cc3c(F)cccc3Cl)c3ccccc3S2(=O)=O)c1`, for which the survival is inactive: 77%.
As to `COc1ccc(N(CC(=O)Nc2ccc(C)c(C)c2)S(=O)(=O)c2ccc(C)cc2)cc1OC`, the survival was inactive: 55%.
In the case of `CC1CCCCN1C(=O)Cn1cc(C(=O)C2CC2)c2ccccc21` (stereo unspecified), the survival was inactive: 88%.
Regarding `Cc1cccc(C)c1NC(=O)CN1C(=O)CCSc2ccc(S(=O)(=O)N3CCCC3)cc21`, the survival is inactive: 84%.
As for `COC(=O)c1cc(NC(=O)Nc2ccc3snnc3c2)cc(C(=O)OC)c1`, the survival is inactive: 72%.
For `COc1ccc(-c2nsc3c(N4CCN(S(=O)(=O)c5cccc(F)c5)CC4)ncnc23)cc1`, the survival is inactive: 98%.
Regarding `CC(=O)c1ccc(N2CCN(c3ncnc4c3c(-c3ccccc3)cn4-c3ccc(C)c(Cl)c3)CC2)cc1`, the survival was inactive: 89%.
